{"source": "the supplement of paper PMC8728848", "assay_in_all_cases": "glycan array binding signal (z-score within array); higher = stronger binding", "conditions_in_all_cases": "glycan notation: IUPAC condensed, linker removed", "key": {"[1]": {"target": "Gal(b1-4)GlcNAc(b1-2)[Gal(b1-4)GlcNAc(b1-6)]Man(a1-6)[Gal(b1-4)GlcNAc(b1-2)Man(a1-3)]Man(b1-4)GlcNAc(b1-4)[Fuc(a1-6)]GlcNAc", "how_it_was_run": "(§1)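 From the Consortium for Functional Glycomics database, 3228 arrays were curated, keeping only those whose protein sequence was available. Binding is given as a within-array Z-score averaged across arrays sharing a protein sequence and across linkers. Negative Z-scores can be read as non-binding.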"}, "[2]": {"target": "Gal(b1-4)GlcNAc(b1-2)[Gal(b1-4)GlcNAc(b1-6)]Man(a1-6)[GlcNAc(b1-4)][Gal(b1-4)GlcNAc(b1-2)Man(a1-3)]Man(b1-4)GlcNAc(b1-4)GlcNAc", "how_it_was_run": "as §1"}, "[3]": {"target": "Gal(b1-4)GlcNAc(b1-2)[Gal(b1-4)GlcNAc(b1-6)]Man(a1-6)[GlcNAc(b1-4)][Gal(b1-4)GlcNAc(b1-2)[Gal(b1-4)GlcNAc(b1-4)]Man(a1-3)]Man(b1-4)GlcNAc(b1-4)[Fuc(a1-6)]GlcNAc", "how_it_was_run": "as §1"}, "[4]": {"target": "Gal(b1-4)GlcNAc(b1-3)Gal(b1-3)GalNAc", "how_it_was_run": "as §1"}, "[5]": {"target": "Gal(b1-4)GlcNAc(b1-3)Gal(b1-3)GlcNAc", "how_it_was_run": "as §1"}, "[6]": {"target": "Gal(b1-4)GlcNAc(b1-3)Gal(b1-4)Glc", "how_it_was_run": "as §1"}, "[7]": {"target": "Gal(b1-4)GlcNAc(b1-3)Gal(b1-4)GlcNAc", "how_it_was_run": "as §1"}, "[8]": {"target": "Gal(b1-4)GlcNAc(b1-3)Gal(b1-4)GlcNAc(b1-2)Man(a1-3)[Gal(b1-4)GlcNAc(b1-3)Gal(b1-4)GlcNAc(b1-2)Man(a1-6)]Man(b1-4)GlcNAc(b1-4)GlcNAc", "how_it_was_run": "as §1"}, "[9]": {"target": "Gal(b1-4)GlcNAc(b1-3)Gal(b1-4)GlcNAc(b1-2)Man(a1-3)[Gal(b1-4)GlcNAc(b1-3)Gal(b1-4)GlcNAc(b1-2)Man(a1-6)]Man(b1-4)GlcNAc(b1-4)[Fuc(a1-6)]GlcNAc", "how_it_was_run": "as §1"}, "[10]": {"target": "Gal(b1-4)GlcNAc(b1-3)Gal(b1-4)GlcNAc(b1-2)[Gal(b1-4)GlcNAc(b1-3)Gal(b1-4)GlcNAc(b1-6)]Man(a1-6)[Gal(b1-4)GlcNAc(b1-3)Gal(b1-4)GlcNAc(b1-2)Man(a1-3)]Man(b1-4)GlcNAc(b1-4)GlcNAc", "how_it_was_run": "as §1"}, "[11]": {"target": "Gal(b1-4)GlcNAc(b1-3)Gal(b1-4)GlcNAc(b1-2)[Gal(b1-4)GlcNAc(b1-3)Gal(b1-4)GlcNAc(b1-6)]Man(a1-6)[Gal(b1-4)GlcNAc(b1-3)Gal(b1-4)GlcNAc(b1-2)Man(a1-3)]Man(b1-4)GlcNAc(b1-4)[Fuc(a1-6)]GlcNAc", "how_it_was_run": "as §1"}, "[12]": {"target": "Gal(b1-4)GlcNAc(b1-3)Gal(b1-4)GlcNAc(b1-3)Gal(b1-4)GlcNAc", "how_it_was_run": "as §1"}, "[13]": {"target": "Gal(b1-4)GlcNAc(b1-3)Gal(b1-4)GlcNAc(b1-3)Gal(b1-4)GlcNAc(b1-2)Man(a1-3)[Gal(b1-4)GlcNAc(b1-3)Gal(b1-4)GlcNAc(b1-3)Gal(b1-4)GlcNAc(b1-2)Man(a1-6)]Man(b1-4)GlcNAc(b1-4)GlcNAc", "how_it_was_run": "as §1"}, "[14]": {"target": "Gal(b1-4)GlcNAc(b1-3)Gal(b1-4)GlcNAc(b1-3)Gal(b1-4)GlcNAc(b1-2)Man(a1-3)[Gal(b1-4)GlcNAc(b1-3)Gal(b1-4)GlcNAc(b1-3)Gal(b1-4)GlcNAc(b1-2)Man(a1-6)]Man(b1-4)GlcNAc(b1-4)[Fuc(a1-6)]GlcNAc", "how_it_was_run": "as §1"}, "[15]": {"target": "Gal(b1-4)GlcNAc(b1-3)Gal(b1-4)GlcNAc(b1-3)Gal(b1-4)GlcNAc(b1-2)[Gal(b1-4)GlcNAc(b1-3)Gal(b1-4)GlcNAc(b1-3)Gal(b1-4)GlcNAc(b1-6)]Man(a1-6)[Gal(b1-4)GlcNAc(b1-3)Gal(b1-4)GlcNAc(b1-3)Gal(b1-4)GlcNAc(b1-2)Man(a1-3)]Man(b1-4)GlcNAc(b1-4)[Fuc(a1-6)]GlcNAc", "how_it_was_run": "as §1"}, "[16]": {"target": "Gal(b1-4)GlcNAc(b1-3)Gal(b1-4)GlcNAc(b1-3)Gal(b1-4)GlcNAc(b1-3)Gal(b1-4)GlcNAc(b1-2)Man(a1-3)[Gal(b1-4)GlcNAc(b1-3)Gal(b1-4)GlcNAc(b1-3)Gal(b1-4)GlcNAc(b1-3)Gal(b1-4)GlcNAc(b1-2)Man(a1-6)]Man(b1-4)GlcNAc(b1-4)GlcNAc", "how_it_was_run": "as §1"}, "[17]": {"target": "Gal(b1-4)GlcNAc(b1-3)Gal(b1-4)GlcNAc(b1-3)Gal(b1-4)GlcNAc(b1-3)Gal(b1-4)GlcNAc(b1-2)Man(a1-3)[Gal(b1-4)GlcNAc(b1-3)Gal(b1-4)GlcNAc(b1-3)Gal(b1-4)GlcNAc(b1-3)Gal(b1-4)GlcNAc(b1-2)Man(a1-6)]Man(b1-4)GlcNAc(b1-4)[Fuc(a1-6)]GlcNAc", "how_it_was_run": "as §1"}, "[18]": {"target": "Gal(b1-4)GlcNAc(b1-3)Gal(b1-4)GlcNAc(b1-3)Gal(b1-4)GlcNAc(b1-3)Gal(b1-4)GlcNAc(b1-2)[Gal(b1-4)GlcNAc(b1-3)Gal(b1-4)GlcNAc(b1-3)Gal(b1-4)GlcNAc(b1-3)Gal(b1-4)GlcNAc(b1-6)]Man(a1-6)[Gal(b1-4)GlcNAc(b1-3)Gal(b1-4)GlcNAc(b1-3)Gal(b1-4)GlcNAc(b1-3)Gal(b1-4)GlcNAc(b1-2)Man(a1-3)]Man(b1-4)GlcNAc(b1-4)[Fuc(a1-6)]GlcNAc", "how_it_was_run": "as §1"}, "[19]": {"target": "Gal(b1-4)GlcNAc(b1-3)Gal(b1-4)GlcNAc(b1-3)Gal(b1-4)GlcNAc(b1-3)Gal(b1-4)GlcNAc(b1-3)Gal(b1-4)GlcNAc(b1-2)Man(a1-3)[Gal(b1-4)GlcNAc(b1-3)Gal(b1-4)GlcNAc(b1-3)Gal(b1-4)GlcNAc(b1-3)Gal(b1-4)GlcNAc(b1-3)Gal(b1-4)GlcNAc(b1-2)Man(a1-6)]Man(b1-4)GlcNAc(b1-4)GlcNAc", "how_it_was_run": "as §1"}, "[20]": {"target": "Gal(b1-4)GlcNAc(b1-3)Gal(b1-4)GlcNAc(b1-3)Gal(b1-4)GlcNAc(b1-3)Gal(b1-4)GlcNAc(b1-3)Gal(b1-4)GlcNAc(b1-2)Man(a1-3)[Gal(b1-4)GlcNAc(b1-3)Gal(b1-4)GlcNAc(b1-3)Gal(b1-4)GlcNAc(b1-3)Gal(b1-4)GlcNAc(b1-3)Gal(b1-4)GlcNAc(b1-2)Man(a1-6)]Man(b1-4)GlcNAc(b1-4)[Fuc(a1-6)]GlcNAc", "how_it_was_run": "as §1"}, "[21]": {"target": "Gal(b1-4)GlcNAc(b1-3)Gal(b1-4)GlcNAc(b1-3)Gal(b1-4)GlcNAc(b1-3)Gal(b1-4)GlcNAc(b1-3)Gal(b1-4)GlcNAc(b1-2)[Gal(b1-4)GlcNAc(b1-3)Gal(b1-4)GlcNAc(b1-3)Gal(b1-4)GlcNAc(b1-3)Gal(b1-4)GlcNAc(b1-3)Gal(b1-4)GlcNAc(b1-6)]Man(a1-6)[Gal(b1-4)GlcNAc(b1-3)Gal(b1-4)GlcNAc(b1-3)Gal(b1-4)GlcNAc(b1-3)Gal(b1-4)GlcNAc(b1-3)Gal(b1-4)GlcNAc(b1-2)Man(a1-3)]Man(b1-4)GlcNAc(b1-4)[Fuc(a1-6)]GlcNAc", "how_it_was_run": "as §1"}, "[22]": {"target": "Gal(b1-4)GlcNAc(b1-3)Gal(b1-4)GlcNAc(b1-3)Gal(b1-4)GlcNAc(b1-3)Gal(b1-4)GlcNAc(b1-3)Gal(b1-4)GlcNAc(b1-3)Gal(b1-4)GlcNAc(b1-2)Man(a1-3)[Gal(b1-4)GlcNAc(b1-3)Gal(b1-4)GlcNAc(b1-3)Gal(b1-4)GlcNAc(b1-3)Gal(b1-4)GlcNAc(b1-3)Gal(b1-4)GlcNAc(b1-3)Gal(b1-4)GlcNAc(b1-2)Man(a1-6)]Man(b1-4)GlcNAc(b1-4)GlcNAc", "how_it_was_run": "as §1"}, "[23]": {"target": "Gal(b1-4)GlcNAc(b1-3)Gal(b1-4)GlcNAc(b1-3)GalNAc", "how_it_was_run": "as §1"}}, "note": "The other results are listed elsewhere or left out.", "data": [{"binder": "APVPVTKLVCDGDTYKCTAYLDFGDGRWVAQWDTNVFHTG", "note": "[PhoSpL (Pholiota squarrosa)]", "values": [{"measurement": "glycan array binding signal (z-score)", "setting": "[1]", "result": 8.42}, {"measurement": "glycan array binding signal (z-score)", "setting": "[2]", "result": -0.499}, {"measurement": "glycan array binding signal (z-score)", "setting": "[3]", "result": 0.118}, {"measurement": "glycan array binding signal (z-score)", "setting": "[4]", "result": 0.26}, {"measurement": "glycan array binding signal (z-score)", "setting": "[5]", "result": 0.027}, {"measurement": "glycan array binding signal (z-score)", "setting": "[6]", "result": -0.094}, {"measurement": "glycan array binding signal (z-score)", "setting": "[7]", "result": -0.286}, {"measurement": "glycan array binding signal (z-score)", "setting": "[8]", "result": 0.485}, {"measurement": "glycan array binding signal (z-score)", "setting": "[9]", "result": 1.94}, {"measurement": "glycan array binding signal (z-score)", "setting": "[10]", "result": 0.267}, {"measurement": "glycan array binding signal (z-score)", "setting": "[11]", "result": 0.945}, {"measurement": "glycan array binding signal (z-score)", "setting": "[12]", "result": -0.517}, {"measurement": "glycan array binding signal (z-score)", "setting": "[13]", "result": 0.178}, {"measurement": "glycan array binding signal (z-score)", "setting": "[14]", "result": 1.14}, {"measurement": "glycan array binding signal (z-score)", "setting": "[15]", "result": 0.552}, {"measurement": "glycan array binding signal (z-score)", "setting": "[16]", "result": -0.638}, {"measurement": "glycan array binding signal (z-score)", "setting": "[17]", "result": 0.769}, {"measurement": "glycan array binding signal (z-score)", "setting": "[18]", "result": 0.181}, {"measurement": "glycan array binding signal (z-score)", "setting": "[19]", "result": -1.09}, {"measurement": "glycan array binding signal (z-score)", "setting": "[20]", "result": 0.488}, {"measurement": "glycan array binding signal (z-score)", "setting": "[21]", "result": 0.718}, {"measurement": "glycan array binding signal (z-score)", "setting": "[22]", "result": -0.452}, {"measurement": "glycan array binding signal (z-score)", "setting": "[23]", "result": 0.431}]}]}
